The source of these data is PMC4336329 (PLoS ONE, 2015).

In all, about 310,000 compounds went through this assay and about 2,200 (0.71%) showed an effect of 50% or more. Effects have a minus sign here. The list shows a part of the results.

Chain of human ether-à-go-go-related gene (hERG) potassium channel (Q12809 whole entry, looked up): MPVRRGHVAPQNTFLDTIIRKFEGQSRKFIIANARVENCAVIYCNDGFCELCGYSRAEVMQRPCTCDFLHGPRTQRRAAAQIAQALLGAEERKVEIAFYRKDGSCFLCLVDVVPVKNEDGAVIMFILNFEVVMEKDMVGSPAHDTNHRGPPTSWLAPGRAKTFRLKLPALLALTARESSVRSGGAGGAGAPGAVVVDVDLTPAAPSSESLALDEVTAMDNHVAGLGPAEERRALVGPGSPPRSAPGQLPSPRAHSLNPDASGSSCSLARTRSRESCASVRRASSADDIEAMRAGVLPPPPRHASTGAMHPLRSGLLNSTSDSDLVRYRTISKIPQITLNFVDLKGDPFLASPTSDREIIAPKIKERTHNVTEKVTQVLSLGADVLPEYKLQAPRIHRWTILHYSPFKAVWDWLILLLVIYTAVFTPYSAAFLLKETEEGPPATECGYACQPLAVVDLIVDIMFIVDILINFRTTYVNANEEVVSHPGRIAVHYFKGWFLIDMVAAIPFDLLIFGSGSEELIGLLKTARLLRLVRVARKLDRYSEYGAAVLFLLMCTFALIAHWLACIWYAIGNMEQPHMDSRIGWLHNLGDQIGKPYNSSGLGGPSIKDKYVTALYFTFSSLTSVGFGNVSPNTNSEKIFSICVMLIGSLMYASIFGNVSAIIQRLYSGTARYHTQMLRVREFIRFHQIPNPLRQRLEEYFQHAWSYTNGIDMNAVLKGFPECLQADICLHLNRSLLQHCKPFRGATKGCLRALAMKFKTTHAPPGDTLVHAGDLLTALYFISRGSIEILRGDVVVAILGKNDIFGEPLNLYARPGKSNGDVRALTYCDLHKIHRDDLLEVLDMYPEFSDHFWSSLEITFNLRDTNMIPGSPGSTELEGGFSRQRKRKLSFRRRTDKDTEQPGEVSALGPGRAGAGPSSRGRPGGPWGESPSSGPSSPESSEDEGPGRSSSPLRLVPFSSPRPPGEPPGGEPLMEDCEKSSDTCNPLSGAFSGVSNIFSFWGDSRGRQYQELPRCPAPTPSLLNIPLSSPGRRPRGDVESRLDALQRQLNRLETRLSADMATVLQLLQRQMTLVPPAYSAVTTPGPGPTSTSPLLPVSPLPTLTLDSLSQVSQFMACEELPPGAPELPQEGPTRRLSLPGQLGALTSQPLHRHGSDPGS

The test addresses human ether-à-go-go-related gene (hERG) potassium channel (human, UniProt Q12809). Kind of test: primary screen, population patch clamp on CHO cells stably expressing hERG.
In the case of `Cc1ccc(-c2nc(S(=O)(=O)c3ccccc3)c(SCC(=O)NCC3CCCO3)o2)cc1` (stereo not shown), the “hERG current change (%, negative = inhibition) at 1uM” value is 14.4%.
As for `COc1ccc(/C=N/NC(=O)c2cc(-c3ccccc3)nc3ccccc23)c(OC)c1`, the figure is 10%.
With `Cc1cc(C)nc(NC2=NCC(=O)N2c2ccccc2)n1` the figure was 14%.
On to `O=C(CCCN1C(=O)/C(=C/c2ccccc2Cl)SC1=S)NNC(=O)c1ccccc1Cl`, for which the “hERG current change (%, negative = inhibition) at 1uM” value is on record as 22%.
With `Cc1ccc(CN2CC(C(=O)NNC(=O)Cn3ccc(C(F)(F)F)n3)CC2=O)cc1` (stereo not shown) the figure was 8.3%; with `N#C/C(=C\c1cc2ccccc2nc1N1CCCCC1)C(N)=O`, -3.88%; with `CCc1onc(C)c1C(=O)Nc1ccc2c(c1)OCO2`, 17.4%.
As for `Cc1noc(C)c1CSc1nnc(-c2ccccc2)n1Cc1ccco1`, the figure is 6.58%; as for `COc1ccc(/C=C/C(=O)OCC(=O)NCCC2=CCCCC2)cc1S(=O)(=O)N1CCOCC1`, 1.38%.
With `CN(CC(=O)Nc1cccc(F)c1)C(=O)c1ccc(COc2ccccc2)o1` the figure was 15.7%.
On to `O=C(Nc1cccc2ccccc12)N1N=CCC1c1ccccc1` (stereo not shown), for which the “hERG current change (%, negative = inhibition) at 1uM” value is 14.8%.
As for `COc1ccc2c(c1)C1CC(C)(NC(=O)C1C(=O)c1ccccc1)O2` (stereo not shown), the figure is -3.39%; as for `O=C(c1cn(-c2ccccc2)nc1-c1cccs1)N1CCN(c2ccccc2)CC1`, 14.6%.
As for `O=[N+]([O-])c1cccnc1Sc1ccc(Br)cc1`, the figure is 12.8%; as for `Cc1ccc(S(=O)(=O)N2CCC(C(=O)NCCc3ccccn3)CC2)cc1`, 8.56%.
With `C#CC(C)(C)NC(=O)c1ccccc1OC` the figure was 4.89%.
Turning to `c1cc2c(cc1C1=NNC(=NC3CC3)SC1)OCCO2`, the “hERG current change (%, negative = inhibition) at 1uM” value was 13.4%.
As for `S=c1[nH]nc(C2CC2c2ccc(Cl)cc2)n1-c1ccc(Cl)cc1` (stereo not shown), the figure is 16.8%.
With `Nn1c(SC/C=C/c2ccccc2)nnc1-c1cccnc1` the figure was 14.6%; with `CCCCOc1ccc(CON(C(C)=O)C(C)=O)cc1Cl`, 8.78%.
With `CN(C(=O)COC(=O)c1ccccc1C(=O)N1CCN(c2ccccc2)CC1)c1ccccc1` the figure was 2.26%; with `O=C(NCc1ccc(Cl)s1)c1cc(COc2c(F)cccc2F)on1`, 2.81%; with `Cc1ccc2c(c1)c1ncnc(N3CCN(c4ccccc4)CC3)c1n2C`, 12.7%.
Consider `CCCCn1nc2cc(C(=O)NCc3ccc(OC)cc3)ccc2c1OCC`, for which the “hERG current change (%, negative = inhibition) at 1uM” value is listed as 17.8%.
With `C=CCc1cccc(CNc2nc3ccccc3n2C)c1O` the figure was 11.4%; with `CC(=O)NC(=S)Nc1cccc([N+](=O)[O-])c1`, -2.63%; with `O=C(CC1CCCCC1)NCc1ccccn1`, 0.656%.
With `COc1cccc(N(CC(=O)NCCSCc2ccc(Cl)cc2)S(C)(=O)=O)c1` the figure was 9.11%; with `COCCN(CCOC)S(=O)(=O)c1ccc(C(=O)Nc2nnc(COC)o2)cc1`, 15.1%.
With `Cc1cccc(NC(=O)CCCn2cc([N+](=O)[O-])cn2)n1` the figure was 4.87%; with `Cl.N=c1sccn1CC(=O)Nc1cccc2ccccc12`, 1.19%.
Regarding `COc1cc([C@H]2c3c(cc(OC)c(O)c3OC)C[C@@H](CO)[C@@H]2CO[C@@H]2O[C@H](CO)[C@@H](O)[C@H](O)[C@H]2O)cc(OC)c1O`, the “hERG current change (%, negative = inhibition) at 1uM” value came to 10.8%.
As for `Cc1cc(NC(=O)CSc2nc3c(C)ccc(C)c3cc2C#N)no1`, the figure is 13.3%.
As for `Cc1ccc(NC(=O)C(=O)NCC2CCCN2S(=O)(=O)c2cccs2)c(C)c1` (stereo not shown), the figure is 17.9%; as for `CC(C)(C)NC(=O)CCc1nnc(Cc2c[nH]c3ccccc23)o1`, 9.37%; as for `COc1ccc(S(=O)(=O)N2CCCC(C(=O)NCc3cccnc3)C2)cc1` (stereo not shown), -2.44%.
With `O=C1CN(C(=O)COC(=O)C2CCN(S(=O)(=O)c3ccccc3C(F)(F)F)CC2)c2ccccc2N1` the figure was 10.1%; with `CCN(C(=O)CSc1nnnn1-c1ccccc1)C1CCS(=O)(=O)C1` (stereo not shown), 2.58%; with `Cc1ccccc1OCCC(=O)N(CC(C)C)c1c(N)n(Cc2ccccc2)c(=O)[nH]c1=O`, -15.3%.
Consider `CCN1CCN(c2nc(C)c3c(n2)CC(C)CC3=O)CC1` (stereo not shown), for which the “hERG current change (%, negative = inhibition) at 1uM” value is listed as 15.6%.
As to `O=C(NCc1ccco1)c1cc([N+](=O)[O-])ccc1N1CCOCC1`, the “hERG current change (%, negative = inhibition) at 1uM” value is given as 2.91%.
As for `CCc1cc2ccc(C)cc2nc1SCC(=O)Nc1c[nH]c(=O)[nH]c1=O`, the “hERG current change (%, negative = inhibition) at 1uM” value is 8.35%.
For the molecule `COc1ccc(CCNC(=O)CCNC(=O)c2ccco2)cc1`, the “hERG current change (%, negative = inhibition) at 1uM” value was -4.63%.
As for `C/C(CC(=O)NC12CC3CC(CC(C3)C1)C2)=N\NC(=O)c1cnccn1`, the figure is 11.5%.
With `COS(=O)(=O)[O-].Cn1c(-c2ccc3ccccc3n2)[n+](C)c2ccccc21` the figure was 6.24%.
With `CC1(c2nnc(Cc3ccccc3)o2)CC(c2ccc(Br)cc2)=NO1` (stereo not shown) the figure was 7.13%; with `CC(C)NS(=O)(=O)c1ccc(OCC(=O)N(C)Cc2ccccc2)cc1`, -16.1%; with `CCOc1ccc(NC(=O)CN(C)C(=O)C(C)N2C(=O)c3ccccc3C2=O)cc1OCC` (stereo not shown), 2.6%.
Take `CC(C)NC(=O)NC(=O)CN1C(=O)NC(Cc2c[nH]c3ccccc23)C1=O` (stereo not shown): the “hERG current change (%, negative = inhibition) at 1uM” value turned out to be 17%.
With `NC(=O)[C@@H]1CCCNc2c(F)cc([N+](=O)[O-])cc2C(=O)N[C@@H](CO)C(=O)N[C@@H](Cc2ccc(O)cc2)C(=O)N1` the figure was -2.24%.
As for `COc1ccc(OCC(=O)NCCC2=CCCCC2)c([N+](=O)[O-])c1`, the figure is 2.46%; as for `CC(C)Cc1nc(N2CCOCC2)c(C#N)c2c1CCC2`, 9.58%; as for `CN(C)c1ccc(/C=C/c2nnnn2-c2ccccc2)cc1`, 5.52%.
With `O=C1c2ccccc2NC(c2ccccc2)N1CCCN1CCOCC1` (stereo not shown) the figure was 9.98%; with `C=CCn1c(O)c(N=NC(=O)c2cccnc2)c2cc(Br)ccc21`, -3.56%.
